Test results taken from PubChem BioAssay AID504466 (National Center for Advancing Translational Sciences (NCATS), 2011).
Among all 330,000 compounds or so, about 4,200 (1.3%) were called active. The shares of active, inactive and inconclusive entries below differ from those in the screen. Calls follow the shape of the dose curve; as a rule, active = well fitted activation curve with a large enough effect; inconclusive = small, poorly fitted or top-dose-only effect; inactive = no such curve, though single readings can be large or run the other way. Potencies beside an inconclusive call are fits to weak or partial responses and may not hold up.

Assay: qHTS screen for small molecules that induce genotoxicity in human embryonic kidney (HEK293T) cells expressing luciferase-tagged ELG1; also: nearly all actives have a fitted effect of over 60% in size; as to activity change, positive = activation: % of control where 0% means no effect
Conditions: HEK293T ELG1-luciferase reporter, luminescence, 16 h; series mostly up to 46 µM; activity change, positive = activation: at the top concentration
In short: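 Screening used a luciferase reporter fused to human ELG1 in HEK293T cells. Luminescence was read on a CCD plate imager after 16 hr exposure and 30 min ONE-Glo incubation.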
Potency is read from the fitted curve at half-maximal effect; tags tell the direction and shape of the fitted curve.

| SMILES | Potency | activity change, positive = activation |
| --- | --- | --- |
| CCC(C)c1ccc(OCc2ccc(C(=O)OC)o2)cc1 (stereo not given) | inconclusive: 4.61 µM [activator, partial curve] |  |
| CCN(CC)c1ccc(/C=N/NC(=O)C2CC2)cc1 | inconclusive: 20.6 µM [activator, partial curve, poor fit] |  |
| COc1ccc(C(=O)COC(=O)c2cc(=O)[nH]c3ccccc23)c(OC)c1 | inconclusive: 14.6 µM [activator, partial curve] |  |
| CCc1ccc(C(=O)NNc2cc(Cl)cc(Cl)c2)cc1 |  | inactive: -0.191% |
| COc1cccc(/C=C/C(=O)c2c(O)cc(C)oc2=O)c1O | inconclusive: 16.4 µM [activator, single point] |  |
| Cn1c2ccccc2c(=O)c2ccc(C#CC3(O)CCCCC3)cc21 | inconclusive: 0.58 µM [activator, partial curve] |  |
| C=CCN=c1scc(C)n1/N=C/c1ccc(O)c(O)c1 | inconclusive: 8.2 µM [activator, partial curve] |  |
| CCNc1nc(Oc2ccc(Cl)cc2Cl)cc(C(F)(F)F)n1 |  | inactive: -2.7% |
| CCOC(=O)C1CCCN(C(=O)CC(C)c2ccccc2)C1 (stereo not given) | inconclusive: 20.6 µM [activator, single point] |  |
| O=C(CCNS(=O)(=O)c1ccccc1)N1CCCCCCC1 | inconclusive: 23.1 µM [activator, single point] |  |
| CC(=O)c1cccc(NC(=O)c2cc(-c3ccc(F)cc3)on2)c1 |  | inactive: 10.5% |
| Cc1ccc(C(=O)NCCN2CCNC2=O)cc1 | inconclusive: 18.3 µM [activator, partial curve, poor fit] |  |
| COc1ccc(-c2nc3ccccc3o2)cc1OC | inconclusive: 23.1 µM [activator, single point] |  |
| COc1ccc(CN2CC(C(=O)NCCC(C)C)CC2=O)cc1 (stereo not given) | inconclusive: 14.6 µM [activator, partial curve, poor fit] |  |
| O=C(NCc1ccc(Cl)cc1)c1noc2c1CCCCC2 | inconclusive: 16.4 µM [activator, partial curve] |  |
| CC1CCN(S(=O)(=O)c2ccc3c(c2)n(C)c(=O)n3C)CC1 | inconclusive: 14.6 µM [activator, partial curve] |  |
| O=[N+]([O-])c1cccn2cc(-c3ccc(Br)cc3)nc12 | inconclusive: 8.2 µM [activator, partial curve, poor fit] |  |
| Cc1nnc(SCC(=O)c2c(N)n(Cc3ccccc3)c(=O)n(C)c2=O)n1C | inconclusive: 6.51 µM [activator, single point] |  |
| Cc1cc2c(=O)n(CC(=O)NCC(=O)Nc3ccc(C(C)C)cc3)cnc2s1 | inconclusive: 32.6 µM [activator, partial curve, poor fit] |  |
| Cc1ccc(C(=O)N/N=C\C2CC=CCC2)cc1[N+](=O)[O-] (stereo not given) |  | inactive: 2.52% |
| NC(=O)CSc1nnc(NC(=O)c2ccc3ccccc3c2)s1 | inconclusive: 13 µM [activator, partial curve] |  |
| O=C(Cn1nc(-c2ccccc2)c2ccccc2c1=O)Nc1ccccn1 | inconclusive: 20 µM [activator, single point] |  |
| Fc1cccc(Cc2noc(CN3CCCCC3c3ccccn3)n2)c1 (stereo not given) | inconclusive: 23.1 µM [activator, partial curve, poor fit] |  |
| O=C(C1CC(=O)N(c2ccc(Br)cc2)C1)N1CCCC1 (stereo not given) | inconclusive: 0.184 µM [activator, single point] |  |

| SMILES | Potency | activity change, positive = activation |
| --- | --- | --- |
| COc1ccc(C(=O)NN(C)c2nc(C(F)(F)F)nc3ccccc23)cc1 | inconclusive: 1.3 µM [activator, full curve, poor fit] |  |
| Cc1cc(C)c2c(N)c(C(=O)Nc3ccc(F)cc3)sc2n1 | inconclusive: 1.83 µM [activator, partial curve] |  |
| C=CCn1c(O)c(N=NC(=O)OCC)c2ccccc21 |  | inactive: -0.876% |
| O=c1sc(Nc2ccccc2)nc2ccsc12 | active: 18.4 µM |  |
| Cc1ccc(C(=O)Nc2nnn(C)n2)cc1 | inconclusive: 20.6 µM [activator, single point] |  |
| COc1ccc(CCn2nc(C)c([N+](=O)[O-])c2C)cc1 | active: 16.4 µM |  |
| CCOC(=O)c1cn2nc(Oc3ccccc3)ccc2n1 | inconclusive: 13 µM [activator, partial curve] |  |
| CCc1n[nH]c(=O)c2cc3cc(OC)ccc3n12 | inconclusive: 23.1 µM [activator, partial curve] |  |
| CCOC(=O)c1ccc(-c2ccc(C=O)o2)cc1 | inconclusive: 8.2 µM [activator, partial curve] |  |
| Brc1ccc(-c2nc(-c3ccccn3)no2)o1 | inconclusive: 0.398 µM [activator, full curve, poor fit] |  |
| COc1ccc(-c2cccc(C(=O)N3CCOCC3)c2)cc1 | inconclusive: 13 µM [activator, partial curve, poor fit] |  |
| O=C(Nc1ccc2c(c1)OCCO2)c1ccc(Cl)cc1 | inconclusive: 0.461 µM [activator, full curve] |  |
| CC(/C=N/NC(=O)c1cc(-c2ccc(Cl)cc2)nc2ccccc12)=C\c1ccco1 | inconclusive: 4.11 µM [activator, full curve, poor fit] |  |
| Cc1noc(C(=O)Nc2ccc3c(c2)OCO3)c1Cl | inconclusive: 13 µM [activator, partial curve] |  |
| CC(=O)c1c(C)[nH]c(C(=O)Nc2cccc(S(=O)(=O)N3CCCCC3)c2)c1C | inconclusive: 18.3 µM [activator, partial curve] |  |
| O=C(N/N=C/c1cn(-c2ccccc2)nc1-c1cc2ccccc2o1)c1cccnc1 | inconclusive: 0.58 µM [activator, full curve] |  |
| COc1cccc(NC(=O)c2ccc3c(c2)OCO3)c1 | active: 6.51 µM |  |
| c1cc(-c2noc(CCC3CCCC3)n2)ccn1 | inconclusive: 20.6 µM [activator, partial curve] |  |
| Cc1nc2cc(Nc3nnc(-c4ccccc4)c4ccccc34)ccc2n1C | inconclusive: 5.8 µM [activator, partial curve, poor fit] |  |
| CN1CCN(NC(=O)/C=C/c2ccc(C(C)(C)C)cc2)CC1 |  | inactive: 1.92% |
| O=C(O)c1ccccc1C(=O)Nc1ccc(-n2ccc(C(F)(F)F)n2)cc1 |  | inactive: 0.0069% |
| O=[N+]([O-])c1cc(/C=N/O)ccc1Oc1ccccc1Cl | inconclusive: 20.6 µM [activator, single point] |  |
| O=C(NC(=S)Nc1ccc(NC(=O)c2cccs2)cc1)c1cc2ccccc2o1 | inconclusive: 18.4 µM [activator, partial curve, poor fit] |  |
| Cc1cc(C(=O)CSc2nc3ccccc3o2)c(C)n1C1CC1 | active: 18.4 µM |  |

| SMILES | Potency | activity change, positive = activation |
| --- | --- | --- |
| COc1ccccc1C(=O)Nc1ccc(-c2nnn(CC(=O)N3CCN(C(=O)c4ccco4)CC3)n2)cc1 |  | inactive: -10.9% |
| O=C(Nc1nc(-c2ccccn2)cs1)c1ccco1 | inconclusive: 16.4 µM [activator, partial curve, poor fit] |  |
| O=S(=O)(c1cccc2nsnc12)N1CCc2ccccc21 | inconclusive: 9.2 µM [activator, partial curve] |  |
| COc1ccc(NC(=S)NC(=O)c2ccc(Br)o2)cc1 | inconclusive: 11.6 µM [activator, partial curve] |  |
| Cc1ccc(-c2nn(-c3ccc(F)cc3)cc2C(=O)N2CCN(C3CCS(=O)(=O)C3)CC2)cc1 (stereo not given) |  | inactive: -0.152% |
| COC(=O)c1cn[nH]c1NC(=S)Nc1ccc(Cl)c(Cl)c1 | active: 0.411 µM |  |
| CC(=O)c1c(C)[nH]c(C(=O)OCc2ccccc2)c1C | active: 18.4 µM |  |
| CCOC(=O)C(C(=O)N(C)Cc1ccccc1)C1CCCCC1 (stereo not given) |  | inactive: -3.42% |
| Cc1ccc(S(=O)(=O)N(CC2CO2)c2cc(Cl)ccc2Cl)cc1 (stereo not given) |  | inactive: -3.16% |
| Cc1cc(C(=O)N2CCCc3ccccc32)ccc1[N+](=O)[O-] |  | inactive: 0.435% |
| CCn1cc(C2=NC(C(C)C)CO2)c2ccccc21 (stereo not given) | inconclusive: 18.4 µM [activator, single point] |  |
| O=C(Nc1ccc(Oc2ccccc2)cc1)C1CCN(c2c3c(nc4ncnn24)CCC3)CC1 |  | inactive: -10.4% |
| COc1ccc2oc(=O)c(C(=O)NC3CCCCCC3)cc2c1 | inconclusive: 13 µM [activator, partial curve] |  |
| COc1cccc(NC(=O)Nc2nccc(C)n2)c1 | inconclusive: 0.58 µM [activator, full curve] |  |
| CCC1CC(/C(C)=N/NC(N)=O)OC1=O (stereo not given) | inconclusive: 29.1 µM [activator, single point] |  |
| CCC(C)Sc1nc2c(cnn2-c2ccc(F)cc2)c(=O)[nH]1 (stereo not given) | inconclusive: 7.3 µM [activator, partial curve, poor fit] |  |
| Cc1ccc(C(=O)Nc2ccc(NC(=O)c3cccs3)cc2)cc1[N+](=O)[O-] | inconclusive: 8.2 µM [activator, partial curve, poor fit] |  |
| Cc1c(OCC(=O)N2C[C@H]3C[C@@H](C2)c2cccc(=O)n2C3)ccc2c3c(c(=O)oc12)CCC3 | inconclusive: 18.3 µM [activator, partial curve, poor fit] |  |
| COc1cc(NC(=O)c2[nH]c(C)c(C(C)=O)c2C)cc(OC)c1OC | inconclusive: 23.1 µM [activator, single point] |  |
| Cc1ccc(OCC(=O)Nc2ccccc2-c2ccccc2)cc1 | inconclusive: 20.6 µM [activator, partial curve, poor fit] |  |
| CC(=O)Nc1ccc(-n2c(C)ccc2C)cc1 | inconclusive: 18.3 µM [activator, single point] |  |
| CCOc1cc(C(=O)CCC(=O)OCC(=O)Nc2ccc(C)c(S(=O)(=O)N(C)C)c2)ccc1O |  | inactive: 13.6% |
